Source: the supplement of paper PMC10338343
± gives the standard deviation. The full ranking holds about 3,000 sequences; the median of “pre-steady-state target cleavage rate” is about 0.0079, and the highest 2% start at about 0.2. Only a part is listed here, and it is no random draw.

Tested on: MILI (PIWIL2) piRISC loaded with piRNA #2 (26 nt)
Assay: pre-steady-state target cleavage rate (min^-1); MIWI and MILI are mouse PIWI proteins and EfPiwi is from a freshwater sponge; tags in brackets are library labels; higher = faster piRNA-guided slicing of the target
Conditions: guide: piRNA #2 5'p-UUAGGUAACCCAGUAGAUCCAGAGGA; auxiliary factor: 500 nM mouse GTSF1
Outline: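 Sequencing of uncleaved targets, normalised to depth and to weakly complementary targets, was the readout of this Cleave-'n-Seq assay. A transcribed, DNA-blocked target RNA library (0.1 nM) was mixed with 1 nM active affinity-purified piRISC carrying one synthetic guide, with or without 500 nM GTSF1 partner protein, in HEPES–potassium acetate buffer at 33 °C for 0–8 or 0–960 min. Three trials were pooled, k3 was capped at 0.0001 min^-1, and a burst-and-steady-state fit gave the pre-steady-state cleavage rate.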

Sequence | pre-steady-state target cleavage rate
CUUAAGCUCUCGAACUACUGGGUUACCUAA | 0.0609 ± 0.012
CUUAACCUCUGGAUCUACUGGGCUACCUAA | 0.0375 ± 0.014
CUUAAGGAGUGGAUCUAUUGGGUUACCUAA | 0.00881 ± 0.0035
CUUAUCCUCUGGACCUACUGGGUUACCUAA | 0.0996 ± 0.024
CUUAAGGUCUGGAUCUACAGGGUUACCUAA | 0.111 ± 0.014
CUUAUCCUCUGGAUCUACUGCGUUACCAAA | 0.00957 ± 0.0042
CUUAAGGAGAGGAAUCUACUGGGUUACCUAA | 0.00399 ± 0.0036
CUUAACGUCUGGAUCUACUGGGUUUCCUAA | 0.0895 ± 0.021
CUUAACCUGUGGAUCUACUGGGUUAGCUAA | 0.00856 ± 0.0053
CUUAAGCUCUGGAUCUACGGGUUACCUAA | 0.00958 ± 0.0046
CUUAAGCUCUAGGAUCUACUGGGUUACCUAA | 0.0369 ± 0.0086
CUUAAGGAGACGAUCUACUGGGUUACCUAU [g2:g19:cont:t1U] | 0.00667 ± 0.0036
CUUAAGGACAGGAUCUAGUGGGUUACCUAA | 0.00804 ± 0.0074
CUUAACCUCUGGUUCUACUGGGUUUCCUAA | 1.67 ± 0.98
CUUAACCUCUGGAUCUAUGGGUUACCUAA | 0.0349 ± 0.01
CUUAAGCUCUCGAUCUACUGGGUUUCCUAA | 0.0761 ± 0.025
CUUAACCUCUGGAACUACUGGGAUACCUAA | 0.0422 ± 0.022
CUUAACCUCUGGUUCUAGUGGGUUACCUAA | 0.068 ± 0.014
CUUAUCCUCUGGAUCUACUGGUUACCUAA | 0.0077 ± 0.0031
CUUAACCUGUGGAUCUACUGGGUUACCAAA | 0.0256 ± 0.0095
CUUAACCUCUGGAUCUAUUGGGUUACCUAA | 0.0785 ± 0.023
CUUAAGGUGUGGAUCUACUGCGUUACCUAA | 0.00593 ± 0.0047
CUUAAGCUCUGGAUCUAGCUGGGUUACCUAA | < 0.0001
CUUAACCUCUGGUUCUACAGGGUUACCUAA | 0.0948 ± 0.019

Sequence | pre-steady-state target cleavage rate
CUUAAGCUCUGGAACUACAGGGUUACCUAA | 0.0677 ± 0.012
CUUAUCCUCUGGAUGUACUGGGAUACCUAA | 0.0275 ± 0.0095
CUUAAGCUGUGGAUCUACUGGGUUAGCUAA | 0.00876 ± 0.0053
CUUAAGGAGUGGAACUACUGGGUUACCUAA | 0.0108 ± 0.0086
CUUAAGGUCUGGAUGUAGUGGGUUACCUAA | 0.0314 ± 0.01
CUUAUCCUCUGGAUCUAGUGGGAUACCUAA | 0.0125 ± 0.0033
CUUAUCCUCUGGUUCUACUGGGUUAGCUAA | 0.235 ± 0.069
CUUAACCUCUGGAUGUACUGGGUUACCUAA | 0.136 ± 0.026
CUUAAGGAGAGGAUCUACUGGGUUUCCUAA | 0.00642 ± 0.0028
CUUAAGGUCUGGAUCUACUGGGUUACCAUAA | 0.0725 ± 0.019
CUUAAGCUCUGGAUCUACUGCGUUACCUAA | 0.0137 ± 0.0059
CUUAUCCUCUGGAUCAACUGGGUUAGCUAA | 0.0291 ± 0.0083
CUUAACCUCAGGAUCUACUGGGUUUCCUAA | 0.069 ± 0.022
CUUAAGGAGUGGAGCUACUGGGUUACCUAA | 0.0203 ± 0.0089
CUUAUGGUCUGGAUCUACUGGGUUACCUAA | 0.109 ± 0.016
CUUAUCCUCUGGUUCUACUGGGUUACCAAA | 0.453 ± 0.15
CUUAAGCUCUGAGAUCUACUGGGUUACCUAA | 0.0935 ± 0.021
CUUAAGCUCUGGAUCUACUGUGUUACCUAA | 0.0309 ± 0.0074
CUUAACCUCUGGACUCUACUGGGUUACCUAA | 0.0674 ± 0.018
CUUAUCCACUGGUUCUACUGGGUUACCUAA | 0.129 ± 0.024
CUUAUCCACUGGAUCUACUGGGUUACCUUA | 0.0763 ± 0.011
CUUAAGGACUGGAUCUACUGGGUUAGCCUAA | 0.0133 ± 0.013
CUUAAGGAGUGGAUCUACACCGUUACCUAA | 0.00369 ± 0.0031
CUUAAGGUCUGGAUCUACUGGGUUAACUAA | 0.0581 ± 0.018

Sequence | pre-steady-state target cleavage rate
CUUAAGCGUCUGGAUCUACUGGGUUACCUAA | 0.0999 ± 0.021
CUUAAGGAGACCAUCUACUGGGUUACUAA | < 0.0001
CUUAACCUCUGGAUCUACUGGGUUAACCUAA | 0.115 ± 0.024
CUUAAGCUCUGGAUCUACCGGGUUACCUAA | 0.0213 ± 0.0061
CUUAAGCUCUGGAUCUAGUGGGUUAGCUAA | 0.0124 ± 0.004
CUUAACCUCUGGAUCUACUGGGUUACCUA | 0.14 ± 0.029
CUUAACCUCUGGAAGUACUGGGUUACCUAA | 0.114 ± 0.019
CUUAUCCUCUGGAUCUACUGAGGUUACCUAA | 0.0102 ± 0.006
CUUAUGCUCUGGAUCUUCUGGGUUACCUAA | 0.0427 ± 0.0095
CUUAAGGUCUGGAUGUACAGGGUUACCUAA | 0.043 ± 0.012
CUUAUCCUCUGGAUCUACUGGGUUACUCUAA | 0.0694 ± 0.015
CUUAAGCGCUGGAUCUACUGGGUUACCUAA | 0.0946 ± 0.019
CUUAACCUCUGGAUCUACUGGGUUACUUAA | 0.101 ± 0.022
CUUAAGGAGACCUAGUACUGGGAUACCUUA | < 0.0001
CUUAAGGACUGCAUCUAGUGGGUUACCUAA | 0.0123 ± 0.0063
CUUAUCCUCUGGAUACUACUGGGUUACCUAA | 0.0816 ± 0.019
CUUAUCCUCUGGAUCUACUGGGUUAACUAA | 0.115 ± 0.029
CUUAAGCUCAGGAUCUACUGGGAUACCUAA | 0.0197 ± 0.0065
CUUAAGGUCUGGUUCUUCUGGGUUACCUAA | 0.0474 ± 0.013
CUUAAGCUCUGGAACUACUGGGUUACCUUA | 0.0686 ± 0.021
CUUAACCUCUGGAUCUACUGGGUCUACCUAA | 0.104 ± 0.024
CUUAAGGAGUGGUUCUACUGGGUUACCUUA | 0.0136 ± 0.0069
CUUAACCCUCUGGAUCUACUGGGUUACCUAA | 0.0821 ± 0.022
